Experimental data reported in the supplement of paper PMC7125110.
Variants at the floor of the assay are shown more often than the library holds them.

B1: glmS ribozyme (parent)
chain: AUAAAAGCGCCAGAACUACAGAAAUGUAGUUGACGAGGAGGAGGUUUAUCGAAUUUUCGGCGGAUGCCUCCAAA

Variants of: B1
Test: self-cleavage kobs at 10000 uM GlcN6P; higher = faster cleavage; RNA array
Details: with glucosamine-6-phosphate
Summary of the method: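 Barcoded ribozyme variants, transcribed in situ by E. coli RNA polymerase on sequenced MiSeq chips, were followed via a hybridised Cy3 probe at 37 °C. Glucosamine-6-phosphate ranged from 40 μM to 10 mM in HEPES/KCl/Mg(OAc)2 buffer. kobs came from decay fits to per-tile medians, and kcat and KM from weighted Michaelis–Menten fits.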

self-cleavage kobs at 10000 uM GlcN6P, < 1e-05 s⁻¹:
AUAAAAGCGCCAGAACUACAGAAAUGUAGUUGCCGGGGAGGAGGUUGAUCAAAUUUUCGGCGGAUGCCUCCAAA
AUAAAAGCGCCAGAACUACAGAAAUGUAGUUGAAGAGGAGGCGGUUUAUCGAAUUUUCGGCGGAAGCCUCCAAA
AUAAAAGCGCCAGAACUACAGAAAUGUAGUUGACGAGGUGGAGGUUUGUAGAAUUUACGGCGGAUGCCUACAAA
AUAAAAGCGCCAGAACUACAGAAAUGUAGUUGUCGAGGAAUAGGUUUAUCGAAUUUUCUGCGGAUGCCUCCAAA
AUAAAAGCGCCAGAACUACAGAAAUGUAGUUGACGAGGCGUAGGUUUAUUGAAUUGGCGGCGGAUGCCUCCAAA
AUAAAAGCGCCAGAACUACAGAAAUGUAGUUGACGAGCAGGAGGUUUACCGAAUUUUCGGCGGAUGCCGCCAAA
AUAAAAGCGCCAGAACUACAGAAAUGUAGGUGACGAUGAGGAGGUUUAUCGUAUUUUCAGCGGAUGCCUCCAAA
AUAAAAGCGCCAGAACUACAGAAAUGUAGUUUACGAGGAGGAGGUUUUUCAAAUUUUCGGCGGAUGACUCCAAA
AUAAAAGCGCCAGAACUACAGAAAUGUAGUUGACGAGGAUGAGGUUUGUCGAAUUUACGGCGGAUUUCUCCAAA
AUAAAAGCGCCAGAACUACAGAAAUGUAGUUGACGCGGAGGAGGUAUAUCGAUUUUUCGGCGGAUGCCUCCAAA
AUAAAAGCGCCAGAACUACAGAAAUGUAGUUGAGGAGGAGGAGGUUUUUCGAAUUUUCGGCGGAUGCCUCCAAA
AUAAAAGCGCCAGAACUACAGAAAUGUAGUUGGCGAUGAGGAGGUUUAUCGAUUUUCCGGCGGAUGCCUCCAAA
AUAAAAGCGCCAGAACUACAGAAAUGUAGUUGUCGAGGCGGAGGUUUCUCGAAUUUUCGGCGGAUGCCUCCAAA
AUAAAAGCGCCAGAACUACAGAAAUGUAGGUGAGGAGGAGGAGGUUUAUCGAAUUGUCGGCGGAUGCCUCCAAA
AUAAAAGCGCCAGAACUACAGAAAUGUAGUUGACGAGGAUAAGGUUGAUCGUAUUUUCGGCGGAAGCCUUCAAA
AUAAAAGCGCCAGAACUACAGAAAUGUAGUUGGCGAGGAGGAUGUUUAUCGAAUUUUCGGCGGAUGCUUCCAAA
AUAAAAGCGCCAGAACUACAGAAAUGUAGUUGAUGAGGAGGAGGUUUAUCGAAUUUUCUGCGCAUGCCUCCAAA
AUAAAAGCGCCAGAACUACAGAAAUGUAGUUGACGAGAAGGAGGUUUAUCGGAUGUUCGGCGGAUGCCUCCAAA
AUAAAAGCGCCAGAACUACAGAAAUGUAGUUGACGAAGAGGAGGUUUUUCUAAUUUUCGGCGGAUGCUUCCAAA
AUAAAAGCGCCAGAACUACAGAAAUGUAGUUGACGAGGAGGCGGUUUAUUGAAUUUUCGGCGGAUGCAUACAAA
AUAAAAGCGCCAGAACUACAGAAAUGUAGUUGAUGAGGAGGUGGUUUAGAGAAUUUUCGGCGGAUGCCUCCAAA
AUAAAAGCGCCAGAACUACAGAAAUGUAGUUGACGAGGAGGCGGUUUAUCGAAUUUGCGGCGGAUGCCUGCAAA
AUAAAAGCGCCAGAACUACAGAAAUGUAGUUGACGAGAAGGAGGUUUAUUGAAUUUUCGCCGGAUGCAUCCAAA
AUAAAAGCGCCAGAACUACAGAAAUGUAGUUGACGAGGCUGAGGUUUAUUGAAUUUUCGGCGGAUGCAUCCAAA
AUAAAAGCGCCAGAACUACAGAAAUGUAGUUGACGAGGAGUAGGUUUAUCGAAUUUCCGGCGGCUGCCUCCAAA
AUAAAAGCGCCAGAACUACAGAAAUGUAGUUGACGAGGAUCAGGUUUAUUGAAUUUUCGGCGGAUGCCUCCAAA
AUAAAAGCGCCAGAACUACAGAAAUGUAGUUGAAGAGGAGGAGGUUUAUCGAAUUUUCGGCGGGUGCCCCCAAA
AUAAAAGCGCCAGAACUACAGAAAUGUAGUUGACGAGGAAGAGGUUUAUCGAAUUUUCGUCGGAUGCUUCCAAA
AUAAAAGCGCCAGAACUACAGAAAUGUAGUUAACGAGGAGGAGGUUAAUCUAAUUUUCGGCGGAUGCCUCCAAA
AUAAAAGCGCCAGAACUACAGAAAUGUAGUUCACGUGGAGGAGGUUUAUCGAAUUUUUGGCGGAUGCCUCCAAA
AUAAAAGCGCCAGAACUACAGAAAUGUAGUUGACGAGUAGAAGGUUUAUCGAAUAUUCGGCGUAUGCCUCCAAA
AUAAAAGCGCCAGAACUACAGAAAUGUAGUUUACGAGGAUGCGGUUUAUCGAGUUUUCGGCGGAUGCCUCGAAA
AUAAAAGCGCCAGAACUACAGAAAUGUAGGUGACUAGGAAGAGGUUUAUCGAAUUUUCGACGGAUGGCUCCAAA
AUAAAAGCGCCAGAACUACAGAAAUGUAGUUGACGAGGAGGCGGUUUAUCAAAUUUUCGGCGAAUGCCUCCAAA
AUAAAAGCGCCAGAACUACAGAAAUGUAGUUGACGAGUAGUAGGUUUAUCGAAUUUUCGGCGGAUGCGUCCAAA
AUAAAAGCGCCAGAACUACAGAAAUGUAGUUGAUGAGGAGGAGGUUUAUCGAAUUUUCGGCGGUUGCCUCUAAA
AUAAAAGCGCCAGAACUACAGAAAUGUAGUUGACGCUCAGGAGGUUUAUCGAAUUUUCGGCGGAUGCCUCCAAA
